Laboratory results from the supplement of paper PMC3334620.
Over roughly 33,000 sequences, “E-score (-0.5 to 0.5)” has its median near -0.054; the highest 2% begin near 0.35. This is one part of the list.

Each sequence was assayed against T1, Stb5 (UniProt P38699) (assay: PBM E-score (8-mer binding enrichment) (E-score (-0.5 to 0.5)); higher = stronger / more preferred TF binding; most listed sequences are background and not binding sites). Details: protein concentration: 200 nM; construct: GST-full length.
T1 sequence: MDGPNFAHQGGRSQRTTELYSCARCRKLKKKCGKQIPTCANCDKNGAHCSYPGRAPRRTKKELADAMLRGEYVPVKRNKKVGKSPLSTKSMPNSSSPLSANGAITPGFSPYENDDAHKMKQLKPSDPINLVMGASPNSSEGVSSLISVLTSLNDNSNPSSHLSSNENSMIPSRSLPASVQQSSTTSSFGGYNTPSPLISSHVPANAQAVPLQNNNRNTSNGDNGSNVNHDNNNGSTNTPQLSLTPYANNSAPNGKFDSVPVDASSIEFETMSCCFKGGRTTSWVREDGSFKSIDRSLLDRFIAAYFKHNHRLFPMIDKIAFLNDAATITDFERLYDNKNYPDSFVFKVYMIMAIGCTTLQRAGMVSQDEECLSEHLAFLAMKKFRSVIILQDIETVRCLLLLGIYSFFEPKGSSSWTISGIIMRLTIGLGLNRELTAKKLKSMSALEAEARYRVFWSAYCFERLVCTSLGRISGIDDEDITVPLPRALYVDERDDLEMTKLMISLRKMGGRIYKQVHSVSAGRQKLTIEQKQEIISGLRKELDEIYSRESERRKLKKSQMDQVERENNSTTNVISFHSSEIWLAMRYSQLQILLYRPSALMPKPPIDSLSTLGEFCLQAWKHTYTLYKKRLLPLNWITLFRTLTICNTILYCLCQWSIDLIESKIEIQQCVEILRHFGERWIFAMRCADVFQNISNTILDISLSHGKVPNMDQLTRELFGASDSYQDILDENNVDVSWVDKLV
Protocol: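 Universal 'all 10-mer' protein binding microarrays (Agilent AMADID 015681) probed with GST-tagged S. cerevisiae TFs (full-length or DBD) made by in vitro transcription/translation (PURExpress), about 100-200 nM. Bound TF was detected with fluorescent anti-GST. Each ungapped 8-mer (which stands for itself and its reverse complement) is scored by the PBM enrichment score (E-score), a modified Wilcoxon-Mann-Whitney statistic from -0.5 to +0.5, computed with the Universal PBM Analysis Suite. Scale: above 0.35 generally sequence-specific binding.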

Sequence	PBM E-score
AAATCTAA	-0.248
AGTTTTGA	-0.0632
ACTCCAAC	-0.0394
GATCCTCC	-0.0359
ACTCTAAT	-0.173
GCAGCAAA	-0.235
GGGATTGA	-0.157
CGGGGGGC	0.0273
CACGTGTC	-0.219
GGGCCCAA	0.0646
GTGCCAGA	-0.0982
GGTATGCA	-0.172
CGGTATAC	0.183
ATCGATGG	-0.137
AAGGTTGC	-0.0796
AGAGGCCT	-0.239
GGCTCGAC	-0.113
GCCTCACC	-0.157
CGCTTGGA	-0.0324
TATCTCGA	-0.107
AGTGTAAA	-0.149
CAGTATGC	-0.117
CAATGTCC	0.138
CCATATTC	0.00817
ATCAGCCC	-0.035

Sequence	PBM E-score
ACCTTCGG	0.165
ATGTAACA	-0.0395
AAAGGAAA	-0.125
CTCGGCGA	0.138
GTGTTTCA	0.1
GCTATAAC	0.231
AGGAAGGC	-0.188
GCCTGAAC	-0.0873
CCCTACGC	-0.138
CCCCACCC	0.0191
CTTCAGAA	0.017
GGGCCACC	-0.0833
AGGGCCTG	-0.335
GAACATTA	-0.0177
ATTGCCTG	-0.106
AACTGATG	-0.153
CACGGATG	0.0738
CCATCACA	-0.122
AAGCGCCC	-0.01
AAAGGGTA	-0.181
CGAGTCTA	-0.128
TCAAATCA	-0.251
CAAGGGGA	-0.129
AAAAACCT	-0.126
CTGCCCGA	0.0717

Sequence	PBM E-score
AGTATTAG	-0.00323
AAATCGGC	0.313
AGCAACCA	-0.068
CGGTGACC	0.141
ACTCACCT	-0.384
AAAGAGCA	-0.184
GTTACCAA	-0.0674
ACAGAGTC	-0.115
GAGTTTCC	0.0707
GTTGCTCA	-0.146
AGCGCCAA	-0.123
CGGGACAG	0.0783
CGGACAGC	0.0844
CCGAGAGA	0.111
AACTCATA	0.0359
AGTTATAT	0.16
ACGCGCGA	-0.0608
GTACGAAA	-0.261
GAACTATA	0.203
ACTCTAGG	-0.144
ACATACGA	-0.2
ACATCGTA	0.017
AGTACTGG	-0.218
TCGTTCCA	-0.146
ATGTTTGC	-0.179

Sequence	PBM E-score
ATTAAAGA	-0.0748
GTGATGGA	-0.0207
TCCGTGCA	0.23
ACACAGCG	0.108
AGGCCTGG	-0.089
TAGTCCAA	-0.153
CGTTCCAC	0.134
ATAGACTC	-0.204
CAACCTTA	-0.237
CTTAATTA	0.112
CAGACTAC	-0.313
GAGTAGCA	-0.0403
CAAGCCAA	-0.0955
ATCATTTC	-0.113
ATACAACG	-0.0128
AGTACAAG	-0.147
AACACCAA	-0.0275
ACAGCACG	-0.0464
CGCGTCGA	0.073
AAAGGCAC	0.0273
ACGTACGT	-0.434
ACTACTCA	-0.24
CGGCCTAG	-0.00214
CTAAAACC	0.234
ACCGAGCG	0.32

Sequence	PBM E-score
CTGGCTTA	-0.23
GGTTCGCA	-0.0754
AATTTTAA	0.246
ATAGCCAA	-0.0873
GCGGTGCA	0.259
AATGAGTA	0.0524
ATTAAATG	0.0899
CTGTACCC	0.0534
GGTAAAGA	0.102
CGTCTGAA	-0.211
AAATGCCC	0.0775
ACCTTCCG	0.0231
CTATTAGC	0.00248
ACGATTTG	-0.225
AACTGGGT	-0.161
CATTTTCA	-0.147
ACACTCCC	-0.0602
CAGGAATA	-0.12
GGTCCGTA	0.332
TTCCGAAA	0.203
CCAAGTTA	-0.107
ATTTAATC	0.169
TAAGTACA	-0.153
GGGTCCAA	0.0197
CGGACCTA	0.466

Sequence	PBM E-score
GGAATAAA	0.0613
ATCATAAA	-0.141
GGATGGAA	-0.208
AATGGCCT	0.103
ATCAGCAG	-0.0861
CACTGGAG	-0.178
AGGAGCCT	-0.305
ACAGCGTC	0.0575
GCTTGGGA	-0.136
ACATCCGG	0.322
CGGACGCC	0.205
ACATAGCA	0.0503
TAGGAATA	0.0605
ACTGCTCG	-0.224
CTATTTAA	0.0779
AGTCTGAG	-0.222
ATCGCGGG	0.206
AGTTAAGG	0.0217
ATTTTATG	0.195
CTACGTGC	-0.122
CCAGTACG	-0.0992
AGACATAA	-0.0193
GCAGAAGA	-0.0766
GTCTTTAA	-0.0538
CCGTATAG	0.0283

Sequence	PBM E-score
TTCAAGAA	0.0588
CCGAATGC	0.178
TCCTAGCA	-0.00686
GGTTGTAA	0.0915
CGGGCCGA	0.327
GCGGGGAA	0.3
CCTTCCCG	-0.125
GAAGGCCC	0.226
CTGCCAAG	-0.158
AGAAAAAG	-0.0433
AGTCAGGA	-0.0969
TCGAGAAA	-0.0657
AGGGAAGC	-0.246
AGACTGAT	-0.0994
GGTCGGTA	0.319
CGGGGGCC	0.165
CACTCTGC	-0.142
GTCCGTGA	0.146
CGTCAAGC	0.0231
CAAGAAGG	-0.193
AATGTTCA	-0.142
GTGGACCA	-0.223
GATTGCCC	0.00611
CGTTTGTC	0.117
ACTGCTTC	0.0548

Sequence	PBM E-score
CTAACCAC	-0.0805
AGGACTAG	-0.228
GATGCACC	0.0425
AGTCCATC	-0.0854
TATCGGAA	0.221
CTAGCGAC	-0.216
AATCCCAG	-0.179
GTGCCCTA	-0.101
GTCGCTTA	-0.00449
CGTCGCGA	0.0788
AACATGAC	-0.175
ACCTGGCT	-0.221
TCGGCTCA	0.0985
GCCATGGA	-0.137
GAGTACGA	0.00642
GCAGTATA	0.0856
CACTCACA	-0.062
AGGTCCAT	-0.0608
TCGCTAAA	0.0383
ACTGTTCA	-0.149
CGATATCA	0.00984
GCCGGTGA	0.316
AATCGCCG	0.407
CACCGTCC	0.407
ATTATATA	0.0402

Sequence	PBM E-score
AGGCCGCA	0.231
CCGACACA	0.27
AATTTCGT	-0.0517
AGATAAAA	0.0479
GACACATA	0.0096
AGGAACTC	-0.162
AGTAACGA	0.0155
AACGCAGC	0.00183
AAGGTAGT	-0.0681
CGCTTGAG	-0.0132
AAGCGACA	0.0208
ACTCATCC	-0.232
AAACAGCC	0.0135
ATGATTGG	-0.0212
GCTACGAA	-0.0407
ATCAGGCA	-0.181
ACCTCTCT	-0.0963
AGCCTGAC	-0.142
GCATGTAA	-0.0745
